This is an account of results in the RNAGym collection of RNA variant scans (doi:10.7554/elife.90254).

Read counts are not given, so values of variants with three or more changes are uncertain.

The chains are these.
B1: OR4K15 (parent)
chain: GUUAACGGUCAUAGGCCAUGGAAACUAGGAGCACCAUUUCGCUGCCAGUGAAGAAAUGAACAAAGAAAAUCUGGGCCAGGCAGGCAUCAAAAGAAAUAGUCUUGCGCUCAACCAGAAAGUCUGUAAUCAUUUUAAGGGUA

The variants in this data set derive from B1. The experiment in a line: self-cleavage, relative activity (ratio to wild type); higher = more cleavage; in vitro, sequencing; the parent is a self-cleaving ribozyme.
For A59G U70C U102C, the self-cleavage came to 0.86.
The figure for A56G U131C A135G is 1.26; for U57C A95G C107U A117G it is 0.01.
The value for A55G U87C A118G U130C U132A was 0.44; that for A59U A82G A118G was 0.32; that for U57C A78G A96G U130A was 0.06.
The value for A56G U87C A95G was 0.75; that for U57A A59G U132C was 0.54; that for A59G U87C U100C was 0.97.
Take U57C A67G A110G: the self-cleavage was 0.06.
The value for A55G U87C A95G was 0.98; that for A59U A63G U102C was 1.48; that for U57C U72A U103A was 0.02.
As to A59G C105U A118G, the self-cleavage was determined as 0.03.
The figure for A59G A82G U97A A118G is 0.12; for A59G A116U U120C it is 0.12; for A55G U87C A94U it is 2.6.
The figure for A56G A60U U87C A90G U131C is 0.41; for A59U U72A G84A U124A it is 0.07; for U57A A89G U97C U103C A125G U131C it is 0.02.
The figure for U57C A92G U108C U131C is 0.01; for A56G C77U A94G A98U it is 2.57.
Turning to A56G G80A A89G A92G A116G, the self-cleavage was 0.1.
The figure for A59G A62U A67G A116G is 0.57; for A59G A114G U131C it is 0.39; for A59G A60U U122C it is 1.67.
The value for A59G A90G A117G A118G was 0.79; that for U57C U100C U132A A135G was 0.59.
The figure for U57C A92G A96U U102C U131C is 2.15.
For the variant A56G A59G A86G U97C A116G, the self-cleavage was 0.43.
With A55G A92G A110G, the self-cleavage came out at 0.1.
Consider A56G A67G A68U U70G A111G, for which the self-cleavage is 0.07.
As to A55G A111G U131C, the self-cleavage worked out at 0.02.
A55G U87A A98G A126G U127C U132A: the self-cleavage came out at 0.09.
For A56G A62G A89U, the self-cleavage turned out to be 1.59.
As to A59G A95G U120C, the self-cleavage is 1.42.
As to A55U U87C A89G U100C, the self-cleavage was found to be 2.3.
The value for A56G A117G A125U was 1.97.
The value for A59G G137U A140G was 1.02; that for A55G A91G U127A was 1.76; that for A55G G75A A116U was 0.03.
The figure for A59U U120C U132C is 0.46.
As for A55U A59G A96G U120C, the self-cleavage came to 0.71.
The value for A59G U103C C113A was 0.09; that for A59U A67G G75C A129G was 0.07.
The value for A59G U87A U130C was 2.
The figure for U57G A94G U103C is 0.41; for U57C A63U U131C U133A it is 0.92; for A59G U87A U100C U102A it is 1.44.
With A59G A89G U122C, the self-cleavage was found to be 1.21.
The figure for A55G A78G A90U A116U A126G is 0.08.
On to A59G A90G A95G U97C U122A, for which the self-cleavage worked out at 0.76.
The value for A55U G83A A92G A114G was 0.82; that for A59G A82G G106A A116U was 0.
On to A56G A98U A134U, for which the self-cleavage came to 2.47.
The value for A55G U97C U120C U131C was 0.79; that for A55U A59C U100C was 2.37.
The value for A59G G106A A110G A111G A135U was 0.01; that for A56G A63G U130C was 1.71; that for G58U A66G C88U A94G was 2.12.
The value for A56G A78G A86G was 0.31.
Take A56G A94G A96G U103C A129C: the self-cleavage was found to be 0.47.
Take U57A G74A A111G U132C: the self-cleavage was 0.01.
The value for A55U A66G A68G was 0.77; that for A59G A86G C88U A92G was 0.88.
The value for A59G A96U A126G G137A was 1.41; that for A59G A86G G115C was 0.05.
The value for U57A A118G U120G was 0.48; that for A55U A78G A82G U87A U100A was 0.08.
As for A56G A64G A68G A86C U97C U103C A126G, the self-cleavage came out at 0.12.
The figure for A59G A91G U133A is 0.53.
Take A56G A86G U102C: the self-cleavage was determined as 2.2.
The value for A59G A62G A89G was 0.89; that for U57A U72C A117G U122C U124C C128U was 0.02; that for A56G A68G U102C U131C was 1.71.
For A55G A90G A91G A110G, the self-cleavage is 0.06.
On to A59G A60U A82C, for which the self-cleavage was determined as 0.14.
The value for A56G A63G A114U was 0.07; that for U57C A125G U139C was 0.28.
The figure for A59G A62G U120C is 0.92; for A56G A66G U124C it is 1.11; for A55G A90G U97C C109U it is 0.09.
The value for A55G U70C U130C was 0.46.
Turning to A59U A68U A86G, the self-cleavage was 1.09.
Take A59G A64G A110G A116G U127C: the self-cleavage was found to be 0.04.
A59C G75A A90G U103C U127C: the self-cleavage worked out at 0.02.
The value for A55G U108C C109U was 0.05.
The figure for A59G A64G U97C U132C is 1.48; for U57A A66U A126G it is 0.82.
The value for A56C A82G A126G was 0.2.
For A59U U108C A126G, the self-cleavage is 0.01.
The figure for A56G A78U U100A is 0.04.
The figure for A59G U103C U108C is 0.01; for A55G G74C A91G A118G U127C it is 0.02.
Take A56G U70C G79A: the self-cleavage came out at 0.25.
The figure for A60C A82U U108C is 0.01; for U57C A63G A69G A82G A114G it is 0.05; for A55U A56G A68G A91G U97C A116G U131C it is 0.43.
The value for U57C A60G U122C was 1.01.
The value for A56G U100A U127A was 0.84; that for A60G A62G A110G was 0.14.
On to A55G A89G A94G U122G, for which the self-cleavage was found to be 2.14.
Take A56G U122C A135G: the self-cleavage amounted to 0.71.
Regarding A56G A69G U103C, the self-cleavage was 1.13.
In the case of A56G A82G A126G, the self-cleavage turned out to be 0.33.
As to A56G G74A U132C, the self-cleavage is 0.21.
The figure for A55U A59U U102C is 1.84; for A59U A82G U120C it is 0.31; for A55G U72C A86G A95G A135U it is 0.09.
The value for A59G U72A A110G was 0.12; that for A56C A60G A63U U72C A134G was 0.13.
As to A59G A78G U131C, the self-cleavage turned out to be 0.13.
The value for A55G A68G A91G C105U A110G was 0.01; that for A56G A62G A95G was 1.14.
With A56G A86G U132C, the self-cleavage is 1.08.
The value for A55G A135G U139C was 1.36; that for A59G A60G A82G U132C was 0.33.
The value for G58A A60U A69G was 1.4; that for A55G U70C A98G U103C A114U was 0; that for U57A A89G U108C was 0.
The value for A55G A82U C107U A116G was 0.01; that for U57A A68G U87C A110G was 0.11.
With A56G U57C A96G U103C A116U, the self-cleavage was 0.03.
The value for U57A A66U G79A was 0.26; that for U57C A67G U139C was 0.91; that for A59G A116G U130C was 0.16.
For A55G U131C U132C A135G, the self-cleavage was determined as 1.08.
The figure for U57A G74A A117U is 0.12.
The figure for A55G A82G U87A U102C is 0.68; for U57C A63G A64U A69G U139A it is 0.96.
The figure for A59G A89U U108A is 0.02; for A59U A86U A117G it is 0.94; for A55G C81U U103C it is 0.03.
Consider A56G A90G U124C U132C, for which the self-cleavage amounted to 0.88.
The value for A59U U87A U97A A111G was 0.03.
The figure for G58A U70C A94G U100A is 0.06.
The figure for A56U U72C U108A is 0.02; for A59G A67U A68G U124C it is 0.81.
A59C U103A A125G: the self-cleavage is 0.15.
The value for A56G A82U U102A A116G was 0.18; that for A59G A82U A125G was 0.05.
On to U57C A117G A118G U127C, for which the self-cleavage came out at 0.52.
The value for A59G A89U A98G U108C A129U was 0; that for A56G A96G U127A U131C was 2.54; that for U57A U87C U124A was 0.65.
The value for U57C A67G U130C was 0.68; that for U57C U70C C77U A140G was 1.31.
The value for A56G A90U U103C U122C was 0.53.
G58A A62G A66G A69G A90G A125U: the self-cleavage is 0.98.
The figure for A59G A118G U122A is 1.01; for A60C U87C U122C U127C it is 0.72; for A59G G79A A82U it is 0.13.
As for U57A A67G G75A U108C A117G A129U, the self-cleavage turned out to be 0.01.
The figure for A55U A67G C105U A118G is 0.01; for U57C A117G A134G it is 1.36.
As for U57C A118U U130C, the self-cleavage came out at 0.3.
As to A59G A62G U120A A129G, the self-cleavage is 1.76.
The figure for A59G C109U U132C is 0.24; for A55G C77U U130C it is 1.23; for A59U C77U U97C A98G U132C it is 1.69.
Turning to A55G U72A A89G, the self-cleavage turned out to be 0.32.
The figure for A56G U87A U120C U139C is 1.1.
Regarding A55G U108C A114U, the self-cleavage worked out at 0.
The value for A56G A82U A111G was 0.01; that for A55G U57C A66G was 0.68; that for A56G A60G A62G A64G A69G A82U A96G was 0.19.
The value for U57A A110G A134G was 0.05.
